# Experimental data as given in PubChem BioAssay (NCATS).
# Values joined by “and” are separate entries in the source; they are usually repeats but may differ in a detail not shown here. Identical values can stand only once. Inconclusive results, whose numbers are uncertain, are shown with a selection of clear calls. Potencies beside an inconclusive call are fits to weak or partial responses and may not hold up. Active and inactive are the calls of the source. Calls follow the shape of the dose curve; as a rule, active = well fitted activation curve with a large enough effect; inconclusive = small, poorly fitted or top-dose-only effect; inactive = no such curve, though single readings can be large or run the other way.
# Target: Cellular tumor antigen p53 (Homo sapiens) (UniProt P04637)
# Chain of UniProt P04637 (P04637 whole entry, looked up): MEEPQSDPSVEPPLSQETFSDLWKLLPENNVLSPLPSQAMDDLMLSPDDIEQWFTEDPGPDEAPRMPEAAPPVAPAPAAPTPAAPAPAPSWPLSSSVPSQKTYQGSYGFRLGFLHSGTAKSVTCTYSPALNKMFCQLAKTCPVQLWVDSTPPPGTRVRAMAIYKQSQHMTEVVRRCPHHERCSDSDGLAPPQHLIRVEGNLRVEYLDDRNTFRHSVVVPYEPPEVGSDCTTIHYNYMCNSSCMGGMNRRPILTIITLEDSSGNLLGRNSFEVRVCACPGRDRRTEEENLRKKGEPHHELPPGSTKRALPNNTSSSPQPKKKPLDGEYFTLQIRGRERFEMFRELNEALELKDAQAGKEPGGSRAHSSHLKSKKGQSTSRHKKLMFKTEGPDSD
# Experiment: Primary qHTS for small molecule compounds that upregulate eGFP-tagged delta133p53alpha (in N-terminal) cells. (AID 2060322); also: nearly all actives have a fitted effect of over 75% in size;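 as to activation: series mostly up to about 56 µM; 0% = DMSO vehicle and 100% = reference activator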
# Settings: NCI-H358 eGFP-delta133p53alpha fluorescence, 24 h; activation: hits give high values
# Summary of the method: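 NCI-H358 cells pre-induced 24 h with 10 ng/ml doxycycline to express N-terminal eGFP-delta133p53alpha, then dosed 24 h at 37C without doxycycline; fixed, Hoechst-stained, GFP intensity by laser scanning cytometry, normalized to DMSO (0%) and 57.5 uM 5-azacytidine (100%).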
# Potency is read from the fitted curve at half-maximal effect; tags tell the direction and shape of the fitted curve.
SMILES,Potency,activation
C[C@@H](CN1CCC(n2c(=O)[nH]c3cc(Cl)ccc32)CC1)NC(=O)c1ccc2ccccc2c1,"inconclusive: 30.1 µM [activator, single point]",–
CC(C)C[C@@H]1NC(=O)[C@@H]2C[C@@]34C[C@@H]5[C@@]6(C)CCCC(C)(C)C6CC[C@@]5(C)N(c5ccccc53)[C@H]4N2C1=O (stereo not given in full),–,inactive: 3.82%
C[C@H](C/C=C/C(C)(C)O)[C@H]1CC[C@@]2(C)[C@@H]3[C@@H](O[C@@H]4O[C@H](CO)[C@@H](O)[C@H](O)[C@H]4O)C=C4C(CC[C@H](O)C4(C)C)[C@]3(C=O)CC[C@]12C (stereo not given in full),"inconclusive: 2.51 µM [activator, single point]",–
CC(C)C[C@@H]1NC(=O)[C@@H](Cc2ccccc2)NC(=O)C(CCCCCC(=O)C2CO2)NC(=O)[C@@H]2CCCCN2C1=O (stereo not given in full),"inconclusive: 5.86 µM [activator, partial curve, poor fit]",–
Cc1nc(NC(=O)N2CCC[C@@H]2C(N)=O)sc1-c1csc(C(C)(C)C)n1,–,inactive: -6.14%
CNC(=O)c1cccc(-c2ccc3c(N4CCOC[C@H]4C)nc(N4CCOC[C@H]4C)nc3n2)c1,–,inactive: 19.5%
COC(=O)C1=C(C)NC(C)=C(C(=O)OCC(C)C)C1c1ccccc1[N+](=O)[O-] (stereo not given),"inconclusive: 0.347 µM [activator, full curve, poor fit]",–
CC(=O)NCC(=O)N1C2CCC1c1cc(Nc3ncc(C(F)(F)F)c(NC4CCC4)n3)ccc12 (stereo not given),active: 3.79 µM,–
CCC(C=C[C@@H]1OC(=O)C=C[C@H]1C)=C[C@H](C)CC=CC(C)=C[C@@H](C)C(=O)[C@@H](C)[C@H](O)[C@@H](C)CC(C)=CC(=O)O,active: 0.287 µM,–
NC[C@@](O)(c1ccc(Cl)cc1)c1ccc(-c2cn[nH]c2)cc1,"inconclusive: 26.9 µM [activator, single point]",–
CCC(=C(c1ccccc1)c1ccc(OCCN(C)C)cc1)c1ccccc1,"inconclusive: 21.7 µM [activator, partial curve, poor fit]",–
Cc1ccccc1CN1CCn2c1nc1c(c2=O)CN(Cc2ccccc2)CC1,–,inactive: 0.477%
Cc1cc(-c2cc(O)ccc2Cl)cc2nnc(Nc3ccc(OCCN4CCCC4)cc3)nc12,"inconclusive: 8.49 µM [activator, single point]",–
Cc1ccc(C(=O)N(CCCN)C(c2nc3cc(Cl)ccc3c(=O)n2Cc2ccccc2)C(C)C)cc1 (stereo not given),"inconclusive: 0.0151 µM [activator, full curve, poor fit]",–
CCCCCCCCCCCCCCCCC(C(=O)O)C(O)(CC(=O)O)C(=O)O (stereo not given),"inconclusive: 17.4 µM [activator, partial curve]",–
CCCc1cc(C)n(C)c(=O)c1CN(C)C(=O)c1cc(-c2ccc(N3CCN(C(C)C)CC3)nc2)cc2c1cnn2C(C)C,"inconclusive: 15.3 µM [activator, single point]",–
CCOC(=O)OC(C)OC1=C(C(=O)Nc2ccccn2)N(C)S(=O)(=O)c2ccccc21 (stereo not given),"inconclusive: 17.4 µM [activator, single point]",–
Cc1cc(O)c2ccccc2c1O,active: 34.7 µM,–
Nc1c(C(=O)Nc2ccc(F)cc2)sc2nc(-c3cccs3)cc(C(F)(F)F)c12,active: 1.53 µM,–
CC1(C)CC[C@]2(C(=O)O[C@@H]3O[C@H](CO[C@@H]4O[C@H](CO[C@@H]5O[C@H](CO)[C@H](O)[C@H](O)[C@H]5O)[C@@H](O)[C@H](O)[C@H]4O)[C@@H](O)[C@H](O[C@@H]4O[C@H](CO)[C@@H](O)[C@H](O)[C@H]4O)[C@H]3O)[C@H](O)C[C@]3(C)C(=CCC4[C@@]5(C)CC[C@H](O[C@@H]6OC[C@@H](O)[C@H](O)[C@H]6O)[C@@](C)(C(=O)O)C5CC[C@]43C)[C@@H]2C1 (stereo not given in full),"inconclusive: 0.0716 µM [activator, single point]",–

SMILES,Potency,activation
Nc1ccc(C(=O)Nc2ccccc2N)cc1,–,inactive: -7.53%
CCN(CC)C(=O)/C(C#N)=C/c1cc(O)c(O)c([N+](=O)[O-])c1,–,inactive: -3.95%
Cc1ccccc1C(C(=O)NC1CCCCC1)N(C(=O)Cn1cnc2ccccc21)c1cccc(F)c1 (stereo not given),"inconclusive: 37.9 µM [activator, single point]",–
C=C(C)C(C)C1OC23CC4(CO2)C(CCC2C5(C)CCC(OC6OCC(O)C(OC7OC(CO)C(O)C(OC8OCC(O)C(O)C8O)C7O)C6OC6OC(CO)C(O)C6O)C(C)(C)C5CCC24C)C3C(C)(O)C1OC(C)=O (stereo not given),–,inactive: -19.8%
CCCCCCCC/C=C/C(=O)O,–,inactive: -2.82%
C[C@@H]1CC[C@]2(C(=O)O)CC[C@]3(C(=O)O)C(=CCC4[C@@]5(C)CC[C@H](O[C@@H]6O[C@@H](C)[C@H](O[C@@H]7O[C@H](CO)[C@@H](O)[C@H](O)[C@H]7O)[C@@H](O)[C@H]6O)C(C)(C)C5CC[C@]43C)C2[C@H]1C (stereo not given in full),"inconclusive: 1.41 µM [activator, full curve, poor fit]",–
Clc1ccccc1CNCC1CCC(CNCc2ccccc2Cl)CC1 (stereo not given),–,inactive: 29.6%
CCC/C=C\C=C/CCc1cc(O)c([C@@H]2O[C@H](CO)[C@@H](O)[C@H](O)[C@H]2O)c(O)c1C(=O)OC,"inconclusive: 4.15 µM [activator, single point]",–
CCC(=C(c1ccc(OCCN2CCCC2)cc1)c1ccc(OCCN2CCCC2)cc1)c1ccccc1,"inconclusive: 37.9 µM [activator, single point]",–
CCCn1ncc(CN2CCCC(C(=O)c3cccc(OC(C)C)c3)C2)c1C (stereo not given),"inconclusive: 1.07 µM [activator, full curve, poor fit]",–
C[C@H]1[C@H](C)C[C@@H](C(=O)O)C2CC[C@]3(C)C(=CC[C@@H]4[C@@]5(C)CC[C@H](O)C(C)(C)[C@@H]5CC[C@]43C)[C@@H]21 (stereo not given in full),"inconclusive: 30.1 µM [activator, single point]",–
C=C1C(=O)OC2/C=C(\COC(C)=O)CC/C=C(\C=O)CC(OC(=O)CC(C)C)C12 (stereo not given),"inconclusive: 10.4 µM [activator, single point]",–
COC[C@@H](c1ccc(C(F)(F)F)cc1)N1CCN(C2(C)CCN(C(=O)c3c(C)ncnc3C)CC2)C[C@H]1C,"inconclusive: 13.7 µM [activator, partial curve, poor fit]",–
Cc1cc(NS(=O)(=O)c2ccc(N)cc2)no1,–,inactive: -13.4% and inactive: 7.02%
C/C=C1\[C@H](O[C@@H]2O[C@H](CO)[C@@H](O)[C@H](O)[C@H]2O)OC=C(C(=O)OCCc2ccc(O)cc2)[C@H]1CC(=O)OCCc1ccc(O)cc1,"inconclusive: 0.0793 µM [activator, full curve, poor fit]",–
CN(C)C(=O)Oc1cccc([N+](C)(C)C)c1,–,inactive: -10.7% and inactive: -13.7%
O=C(OOC(=O)c1ccccc1)c1ccccc1,–,inactive: -15.1%
NC(=O)c1ncn([C@@H]2O[C@H](CO)[C@@H](O)[C@@H]2O)c1N,"inconclusive: 7.69 µM [activator, single point]",–
CC(=O)O[C@H]1CC2C(COC(=O)CC(C)C)=CO[C@@H](OC(=O)CC(C)C)C2[C@]12CO2 (stereo not given in full),active: 10.4 µM,–
CSc1ccc2c(c1)N(CCC1CCCCN1C)c1ccccc1S2 (stereo not given),"inconclusive: 34.7 µM [activator, single point] and inconclusive: 30.1 µM [activator, single point]",–
